± gives the standard deviation of the averaged measurements. The list shows a part of the results.

The text below walks through data of the supplement of paper PMC11417369.

This test relates to PfAP2-LT AP2 domain (GST-tagged). Nature of the test: gcPBM binding intensity (ln(normalized median fluorescence intensity)); higher = stronger DNA binding. In short, it runs like this: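 The binding buffer was 1× PBS containing 1% milk, 0.2 mg/ml BSA, 0.5% salmon testes DNA and 0.03% Triton X-100. In it, GST-tagged P. falciparum DNA-binding domains expressed in E. coli were applied for 1 h to an Agilent 4 × 180k array of primer-extended double-stranded 36-bp intergenic genomic probes plus negative controls. Binding intensity, read with Alexa488 anti-GST antibody and a 488 nm scan, is the highest Masliner-normalised natural-log median intensity across replicate spots of either probe orientation.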
On to “TAAGAACTATTCAGTAGTACCTATATGGATTACTAA [XGTACX_site4278]”, for which the “gcPBM binding intensity (ln)” value came to 8.73 ± 0.39.

Turning to “AAATAAAGATATATATATATATATATATATAATTTT [CACACA_negctrl_site30]”, the “gcPBM binding intensity (ln)” value is 9.46 ± 0.36.

For the sequence “CATAAATCAGCCATAACACACATACCTATATACATA [CACACA_site6324]”, the “gcPBM binding intensity (ln)” value is 9.21 ± 0.26.

Turning to “AAAATGTGCATATTTGCACACTTCAATATATATATA [CACACA_site1791]”, the “gcPBM binding intensity (ln)” value was 9.56 ± 0.15.

As for “AATATAAAAAGGCACACACACAAAAAAAAAAAAAAA [CACACA_site896]”, the “gcPBM binding intensity (ln)” value is 9.46 ± 0.38.

Take “AAATATTTTGCATACACATGCAAATATTTTTTACAT [TGCATGCA_site554]”: the “gcPBM binding intensity (ln)” value was 8.74 ± 0.45.

With “AATATATATTTGTGTACACATTATATATATATATAT [CACACA_site6103]”, the “gcPBM binding intensity (ln)” value was found to be 9.13 ± 0.33.

As to “AATCTCAGAATATACTGTACTTTAAGAAAAAAAAAA [XGTACX_site110]”, the “gcPBM binding intensity (ln)” value was 8.34 ± 0.42.

Take “AAAATTTAAATAGGAAGTACGTTCACTAAGAAAATA [XGTACX_site6546]”: the “gcPBM binding intensity (ln)” value came out at 8.79 ± 0.45.

On to “ATAATTTAAAAACATTGTACATTAATATATATGTAT [XGTACX_site8970]”, for which the “gcPBM binding intensity (ln)” value was 8.65 ± 0.39.

Turning to “ATAATAACTGATAAATGTACATATAAATTTTATGAT [XGTACX_site195]”, the “gcPBM binding intensity (ln)” value came out at 8.87 ± 0.42.

Consider TTTTATATTTTAAGAGTGCATTTTATATCTTTTTCT, for which the “gcPBM binding intensity (ln)” value came out at 8.6 ± 0.54.

As for “GAAAATATTAAATGAAGTACAATATTTATGTTACTT [XGTACX_site8737]”, the “gcPBM binding intensity (ln)” value worked out at 8.62 ± 0.48.

For “ATACTCACGAAACACACACACAATATATATATATAT [CACACA_site4136]”, the “gcPBM binding intensity (ln)” value amounted to 9.84 ± 0.23.

For “TTTATATTTCTTCATCGTACACATAAAAAAAAAAAA [XGTACX_site3244]”, the “gcPBM binding intensity (ln)” value amounted to 8.09 ± 0.33.

Take “ATTTATTTTCTGTGTACACATATGTTGGGTATTTTA [CACACA_site5902]”: the “gcPBM binding intensity (ln)” value stood at 9.23 ± 0.36.

In the case of “AGAAAAAAAAAAAGTACACACATATAACATATAGAT [CACACA_site7410]”, the “gcPBM binding intensity (ln)” value came out at 9.19 ± 0.46.

As for “GTATATATCCCAAAATGTACATAATTTATTATTTAT [XGTACX_site2842]”, the “gcPBM binding intensity (ln)” value was 8.69 ± 0.49.

Consider “ATAGGTAAAAAGTATACACACGTTGACACATTCTTT [CACACA_site4794]”, for which the “gcPBM binding intensity (ln)” value came out at 9.04 ± 0.38.

On to “AAATAATACAAGGGCTGTACATAAAAAGGAGTATAT [XGTACX_site839]”, for which the “gcPBM binding intensity (ln)” value is 9.12 ± 0.49.

Take ATTTTAAAAAGGATAGTGCAAATGTTAAAATAGGAC: the “gcPBM binding intensity (ln)” value amounted to 9.12 ± 0.46.

In the case of “GAAAATTTAAAAAGAGTGCATTATATGTTTGAATAT [GTGCAC_site9564]”, the “gcPBM binding intensity (ln)” value was determined as 8.6 ± 0.46.

Regarding “CTTTTTTTCTTTCCAAGTACTAAATTCATACAAATT [XGTACX_site2605]”, the “gcPBM binding intensity (ln)” value turned out to be 8.46 ± 0.44.

“TTTAACGAATAAAAATGTACAAATTTATACATTTAT [XGTACX_site2805]”: the “gcPBM binding intensity (ln)” value worked out at 8.47 ± 0.49.

“AATAAAATAATAAAAGCACACAAGAATACACCCAAA [CACACA_site7919]”: the “gcPBM binding intensity (ln)” value was determined as 9.47 ± 0.35.

“CAAAAGGATGTGGGATGTACATATGAAAAAAAAAAA [XGTACX_site8059]”: the “gcPBM binding intensity (ln)” value stood at 8.9 ± 0.59.

For the sequence “TTTTATTTATAATACTCACACATTTATATTACATAT [CACACA_site6000]”, the “gcPBM binding intensity (ln)” value was determined as 8.98 ± 0.54.

“TTGTATGTAAAAAAGTGTACATGAGTGATTATATAA [XGTACX_site8166]”: the “gcPBM binding intensity (ln)” value was 8.76 ± 0.38.

Take “GGTCTTTTTTTCAAAAGTACATAAATAAAAAAGGTT [XGTACX_site2894]”: the “gcPBM binding intensity (ln)” value came to 8.43 ± 0.49.

Regarding “ATTACTAAAAAATATAAACACACATATATTTTACAT [CACACA_site8633]”, the “gcPBM binding intensity (ln)” value is 8.9 ± 0.4.

For the sequence “TAAATTTAAAAATCTGCACACATTTAAAAAAAAAAA [CACACA_site2515]”, the “gcPBM binding intensity (ln)” value stood at 8.71 ± 0.52.

With “ATTATTTAAAAAAAATGTACATAATAAATATGAACG [XGTACX_site4010]”, the “gcPBM binding intensity (ln)” value came out at 8.62 ± 0.43.

In the case of “AATAAATGGAATGTCACACATATATATATATATATA [CACACA_site4869]”, the “gcPBM binding intensity (ln)” value was determined as 9.97 ± 0.028.

As for “AGTGTATGTATATAAACACACATACATATTTATAAC [CACACA_site6777]”, the “gcPBM binding intensity (ln)” value is 9.29 ± 0.35.

Take “TAAATTAAAAAACACACACACAAAAAAAAAAAAAAA [CACACA_site2263]”: the “gcPBM binding intensity (ln)” value amounted to 9.41 ± 0.51.

With “AAAAAAAAGAAAGAAAGTACAAATTATAAAATGAAC [XGTACX_site860]”, the “gcPBM binding intensity (ln)” value was determined as 8.97 ± 0.57.

With “ATTTCTAAATGTTGGTGTACGTTTTTTTATAACCTT [XGTACX_site1752]”, the “gcPBM binding intensity (ln)” value stood at 8.93 ± 0.61.

Turning to “GGAAAACACAAAAACTGTACATTTATTCAACATATA [XGTACX_site5831]”, the “gcPBM binding intensity (ln)” value came out at 8.8 ± 0.57.

“TATATACATATATACACACACATATATATATATATA [CACACA_site2805]”: the “gcPBM binding intensity (ln)” value turned out to be 9.905 ± 0.0071.

On to “CAGGTGCACTATATTACACACGCTTCTTTTTTTTTA [CACACA_site2069]”, for which the “gcPBM binding intensity (ln)” value came out at 8.98 ± 0.37.

For the sequence “TTGATATTATTGTATAAACATAATAGAGATAAAGAG [TGCATGCA_negctrl_site455]”, the “gcPBM binding intensity (ln)” value came to 8.8 ± 0.52.

As for “TACAAAAAAATAAATAATAAAAAAAAATATATATAA [XGTACX_negctrl_site344]”, the “gcPBM binding intensity (ln)” value turned out to be 8.51 ± 0.42.

Regarding TGAAGGATATATTCCGTGCACATATAAATATATACA, the “gcPBM binding intensity (ln)” value was 8.83 ± 0.4.

Regarding “AACATGTTAACTAAATGTACACACCTATGTTGATGT [XGTACX_site3777]”, the “gcPBM binding intensity (ln)” value was found to be 9.23 ± 0.33.

“ATATAATGTTGTAATAGTACTTTTTTCATATAAATA [XGTACX_site2666]”: the “gcPBM binding intensity (ln)” value turned out to be 8.5 ± 0.38.
